# From the BET-seq Pho4 binding data (Le et al. 2018)
# The other results are listed elsewhere or left out. The energies were worked out here from pooled read counts, against the library average; single values are noisy.
# Biological target: T1, Pho4 (S. cerevisiae) (UniProt P07270)
# T1 sequence: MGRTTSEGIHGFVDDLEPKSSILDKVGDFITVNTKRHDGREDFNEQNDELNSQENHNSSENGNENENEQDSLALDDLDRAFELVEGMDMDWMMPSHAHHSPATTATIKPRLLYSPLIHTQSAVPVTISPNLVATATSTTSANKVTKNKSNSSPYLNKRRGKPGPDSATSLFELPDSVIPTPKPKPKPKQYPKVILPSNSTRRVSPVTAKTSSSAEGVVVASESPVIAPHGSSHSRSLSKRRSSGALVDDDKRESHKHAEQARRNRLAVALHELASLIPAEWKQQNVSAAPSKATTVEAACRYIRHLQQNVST
# Assay: relative binding free energy (BET-seq); higher = weaker binding
# Details: reference: library average
row,Sequence,relative binding free energy [kcal/mol]
1,TAAGTCACGTGTGATA,0.11
2,GTGTTCACGTGCTGCA,0.37
3,ATGTACACGTGTGTTT,0.18
4,CCGTTCACGTGGTGGT,0.12
5,GGATGCACGTGTCATA,0.11
6,TACAGCACGTGCGGGG,-0.14
7,TTAAACACGTGAAGGG,0.28
8,ATTATCACGTGCGTTA,0.12
9,GTGAACACGTGGTAGG,-0.1
10,AATGGCACGTGCGGGA,-0.18
11,GGATGCACGTGGGAGG,-0.15
12,TGGTTCACGTGAAGAT,0.32
13,TTAATCACGTGTAGTC,0.07
14,GCTAGCACGTGCGTGG,-0.12
15,CGTGGCACGTGTTGTG,-0.07
16,TTGAGCACGTGTTTAC,-0.03
17,ATTTCCACGTGTGGGC,0.17
18,TATGGCACGTGAGTTC,0.12
19,ATGGGCACGTGGTCGT,-0.33
20,CGTGGCACGTGCGGCG,-0.19
21,GAAGACACGTGTGGGA,0.03
22,GATTGCACGTGACGTG,0.2
23,ACGTGCACGTGGGTTC,-0.12

row,Sequence,relative binding free energy [kcal/mol]
1,TGTCGCACGTGTTTTA,0.06
2,GTTCACACGTGGTGAT,0.07
3,TTGTTCACGTGGGTCA,0.17
4,AGGCGCACGTGTTATG,0.01
5,TAGTCCACGTGGTTGA,-0.03
6,CTAGGCACGTGTTGTT,-0.13
7,TGATCCACGTGTTTTT,0.05
8,ATTGACACGTGGGACG,-0.16
9,ATTTTCACGTGAGGAC,0.53
10,AGCGTCACGTGATATT,0.35
11,AGTCTCACGTGTTATT,0.12
12,GATTCCACGTGCTGGT,0.19
13,GGCGGCACGTGGGTTC,-0.08
14,TTTAGCACGTGGGGAG,-0.1
15,TTACGCACGTGGGGCG,-0.37
16,TGGTTCACGTGCGCTA,0.33
17,AGTAACACGTGTGGTT,0.03
18,TTGTACACGTGGTTCA,-0.11
19,CAGGTCACGTGTCGTG,0.04
20,CTGTTCACGTGTGTAG,0.19
21,ACGAGCACGTGGCTGG,-0.13
22,CTTTTCACGTGCGGTG,0.32
23,TGGGTCACGTGATTGA,0.08

row,Sequence,relative binding free energy [kcal/mol]
1,AATTACACGTGTGTGT,0.08
2,AGTTTCACGTGTTGAG,0.28
3,ATGTACACGTGGGAGG,0.01
4,TGAGTCACGTGCGGCT,0.14
5,TACATCACGTGTTTGT,-0.01
6,AGAATCACGTGTATTT,0.11
7,AGTCACACGTGTGTGA,0.06
8,TTAGACACGTGAGTTC,0.26
9,TTATACACGTGGTGAC,0.07
10,TAGGTCACGTGTGCGG,-0.05
11,AGTAACACGTGGGTCT,-0.1
12,ACTAACACGTGTGTGT,0.01
13,ATCGTCACGTGTCGGA,0.16
14,TCTGTCACGTGTGGGG,0.14
15,GATACCACGTGGGTTT,-0.09
16,GAGGTCACGTGAATTT,0.54
17,AATTACACGTGTTTTG,0.11
18,TGGGCCACGTGTACGG,-0.09
19,ATTGTCACGTGGGTAC,-0.01
20,GGATGCACGTGATGGA,0.15
21,TGTTTCACGTGAGGTT,0.45
22,AACTTCACGTGTGTGT,0.26
23,GGCTTCACGTGGCTTG,0.25

row,Sequence,relative binding free energy [kcal/mol]
1,TTAGACACGTGTTGCG,0.06
2,TTTAGCACGTGTTACA,-0.16
3,TCGCGCACGTGGGAGA,0.08
4,TGGGTCACGTGATCTG,0.18
5,TTGAACACGTGTCGTG,0.05
6,GGTTCCACGTGTCTTG,0.2
7,GATATCACGTGGGCTC,0.28
8,GTGATCACGTGCGATG,0.07
9,TCGATCACGTGGTATG,0.07
10,GTGGGCACGTGCTATA,0.01
11,ATACTCACGTGGGTTA,0.08
12,TTAATCACGTGCGGTC,0.24
13,GGTTGCACGTGATCAG,0.04
14,ATACGCACGTGGGTGG,-0.37
15,CTACGCACGTGTGTGT,-0.12
16,TTAATCACGTGTTTCA,0.06
17,TTCGACACGTGACGGT,0.23
18,ACGTTCACGTGTAGGT,0.24
19,GACGACACGTGTAGGG,0.12
20,ACTGTCACGTGGGCTG,-0.15
21,TGCTACACGTGGTGGG,0.04
22,CATGGCACGTGAGGGG,0.15
23,TAAGGCACGTGTGTTT,-0.02

row,Sequence,relative binding free energy [kcal/mol]
1,AAGAGCACGTGTTGTG,-0.07
2,ATTCTCACGTGCTGGT,0.11
3,TGTAGCACGTGTGAAA,-0.07
4,TAAGACACGTGAGGGG,0.16
5,TAGTTCACGTGAGGTT,0.36
6,AGAGGCACGTGGATGC,-0.12
7,AGGTGCACGTGTTAGA,0.03
8,GAGAACACGTGTGGGT,0.21
9,AGTAGCACGTGTTGTT,-0.1
10,TACGTCACGTGCGGTA,0.08
11,GCGGTCACGTGATTTT,0.49
12,GGTAACACGTGTTACT,0.24
13,AGTCGCACGTGGGGGT,-0.22
14,ATTATCACGTGTGGAT,0.12
15,TGGTGCACGTGTTTGA,0.05
16,TCTAGCACGTGTTGGC,-0.1
17,ATGTTCACGTGAGGTG,0.23
18,GGTTCCACGTGGGTTT,-0.04
19,TCAGTCACGTGTATAT,0.09
20,TCGCGCACGTGTTGAG,-0.07
21,CTTTACACGTGCGTGG,-0.08
22,AGAGTCACGTGAGATG,0.14
23,ATTGCCACGTGTCTGG,0
